In PubChem BioAssay AID624417 (National Center for Advancing Translational Sciences (NCATS), 2012):
About 6,400 (1.6%) of roughly 410,000 compounds were called active. This list was built around the results that the source calls inconclusive (neither active nor inactive); the mix of calls is not that of the screen. Calls come from the whole dose curve; as a rule, active = well fitted inhibition curve with a large enough effect; inconclusive = small, poorly fitted or top-dose-only effect; inactive = no such curve, though single readings can be large or run the other way. No potency is given beside an inconclusive call; the fits are too rough.

Molecular target: Glucagon-like peptide 1 receptor (Homo sapiens) (UniProt P43220)
Experiment: qHTS of GLP-1 Receptor Inverse Agonists (Inhibition Mode); note: nearly all actives have a fitted effect of over 55% in size
Details: HEK293 GLP-1R CRE-luciferase, luminescence, 24 h, GLP-1R form is constitutively active; series mostly up to 38.3 µM
Method in brief: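 Readout was luciferase luminescence, measured 12 min after detection reagent at room temperature. Beforehand, GLP-1R reporter HEK293 cells had sat 12 h, then received compounds for 24 hr at 37 deg C.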
Potency is the fitted concentration of half-maximal effect; tags give direction and shape of the fitted curve.

Sequence of UniProt P43220 (P43220 whole entry, looked up): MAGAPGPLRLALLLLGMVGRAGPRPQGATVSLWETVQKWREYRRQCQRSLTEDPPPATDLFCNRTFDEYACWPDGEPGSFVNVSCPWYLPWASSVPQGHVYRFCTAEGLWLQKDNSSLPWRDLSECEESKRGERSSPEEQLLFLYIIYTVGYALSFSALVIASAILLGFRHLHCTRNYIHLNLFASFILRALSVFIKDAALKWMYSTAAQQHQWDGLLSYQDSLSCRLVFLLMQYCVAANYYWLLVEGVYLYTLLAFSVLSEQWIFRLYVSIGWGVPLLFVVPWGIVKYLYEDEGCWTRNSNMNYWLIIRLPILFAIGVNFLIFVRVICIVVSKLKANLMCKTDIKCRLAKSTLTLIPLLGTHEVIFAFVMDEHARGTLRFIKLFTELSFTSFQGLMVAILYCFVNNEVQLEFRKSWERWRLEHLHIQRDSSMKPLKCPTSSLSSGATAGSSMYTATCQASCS

SMILES | Potency
C/C(=N\NC(=O)c1cccc(S(=O)(=O)Nc2cccc(Cl)c2)c1)c1cccs1 | inconclusive [inhibitor, partial curve, poor fit]
Cc1cc2c(cc1S(=O)(=O)Nc1ccc(F)cc1)n(C)c(=O)c(=O)n2C | inactive
COc1ccc(NC(=O)CN(C)C(=O)c2cc(-c3cccs3)nn2-c2ccccc2)cc1 | inconclusive [inhibitor, partial curve, poor fit]
CC(C)Cc1csc(NC(=O)c2ccc(F)cc2)c1C(=O)O | inconclusive [inhibitor, partial curve, poor fit]
Cc1csc(NC(=O)CSc2ccc(-c3ccccn3)nn2)n1 | inconclusive [inhibitor, single point]
CC1CN=C2C(C(=O)Nc3ccccc3)=C(O)CC(c3ccccc3)N21 (stereo unspecified) | inconclusive [inhibitor, single point]
CCOc1ccc(Br)cc1C1=NN(C(C)=O)C(c2ccc([N+](=O)[O-])s2)O1 (stereo unspecified) | inactive
COc1ccc(OC)c(CNC(=O)Cc2ccc(NC(=O)N3CCCCc4ccccc43)cc2)c1 | inactive
CC1CC1C(=O)Nc1nc(-c2ccccn2)cs1 (stereo unspecified) | inconclusive [inhibitor, single point]
O=C1N[C@@H](c2ccccc2)COC(=O)[C@@H](Cc2ccc(F)cc2)CC/C=C/C[C@@H]1CC(=O)N(CCO)Cc1ccccc1 | inconclusive [inhibitor, single point]
COC(=O)c1ccc2nc(C(C)(C)C)c(Cc3ccc(OC)cc3C)n2c1 | inactive
Cc1c(C(=O)Nc2cnccn2)oc2ccccc12 | inactive
COc1ccc(C(C)C)cc1S(=O)(=O)NCCc1c(C)[nH]c2ccc(C)cc12 | active: 11.2 µM
CC(=O)Nc1ccc(C(=O)OCC(=O)NCc2ccccc2)cc1 | inactive
CC1=C(c2ccc(C)c(C)c2)S(=O)(=O)N=C1N1CCC(C(=O)NCc2ccc(C)o2)CC1 | inactive
Cc1ccccc1OCCn1c(CCNC(=O)C(C)(C)C)nc2ccccc21 | inconclusive [inhibitor, partial curve, poor fit]
Cc1cccc(C)c1NC(=O)COC(=O)c1ccc2c(c1)OCO2 | inactive
CCOc1ccc2nc(NC(=O)C3(C)CC3(Br)Br)sc2c1 (stereo unspecified) | inconclusive [inhibitor, partial curve, poor fit]
O=C(CC(SCc1ccco1)c1ccc(O)cc1)c1cccs1 (stereo unspecified) | inactive
CCOc1ccccc1-c1c2cc(O)c(=O)cc-2oc2cc(O)c(O)cc12 | inconclusive [inhibitor, partial curve, poor fit]
CN(Cc1ccc(OC(F)F)cc1)C(=O)c1cccc(S(=O)(=O)N2CCN(Cc3ccccc3)CC2)c1 | inconclusive [inhibitor, partial curve, poor fit]

SMILES | Potency
CCc1ccc2nc(N(CCCN(C)C)C(=O)c3ccc(C(=O)c4ccccc4)cc3)sc2c1 | inconclusive [inhibitor, partial curve]
COC(=O)c1cc2c(ccn2-c2ccc(F)cc2)n1CC(=O)C(C)(C)C | inconclusive [inhibitor, full curve]
CC1CCCC(NC(=O)COC(=O)c2ccccc2C(=O)N(C)C2CCCCC2)C1C (stereo unspecified) | inconclusive [inhibitor, partial curve, poor fit]
CN1C(=O)[C@@](O)(c2cn(C)c3ccccc23)c2cc(Br)ccc21 | inconclusive [inhibitor, single point]
Cc1ccc2nc(C(C)(C)C)c(Cc3ccccc3C(F)(F)F)n2c1 | inconclusive [inhibitor, single point]
Nc1ncc(Br)cc1S(=O)(=O)NCCC(=O)Nc1cccc(Cl)c1 | inconclusive [inhibitor, partial curve, poor fit]
CC1Cc2ccccc2N1C(=O)Cn1nnc(-c2ccccc2NC(=O)C2CCC2)n1 (stereo unspecified) | inconclusive [inhibitor, single point]
Cc1cc(OCc2nc(N)nc(N)c2-c2ccc(Cl)c(Cl)c2)ccc1[N+](=O)[O-] | inconclusive [inhibitor, full curve, poor fit]
CC1COC(Cn2c3ccccc3c3ccccc32)O1 (stereo unspecified) | inconclusive [inhibitor, partial curve, poor fit]
CCCNC(=O)C1CCC(Cn2c(=O)c3sccc3n(CC(=O)N3CCC(C)CC3)c2=O)CC1 (stereo unspecified) | inactive
CCOc1ccccc1NC(=S)N1CCC(NC(=O)NC23CC4CC(CC(C4)C2)C3)CC1 | inconclusive [inhibitor, partial curve, poor fit]
CN(Cc1ccccc1)C(=O)COC(=O)c1cc(S(=O)(=O)N(C)C)ccc1N1CCCC1 | inconclusive [inhibitor, partial curve, poor fit]
COc1ccc(N2CCN(C(=O)c3ccc(-c4nc(COc5ccccc5)c(C)o4)cc3)CC2)cc1 | inactive
CCOc1ccc(OCC)c(NC(=O)CN(C)S(=O)(=O)c2ccc3c(c2)CCCC(=O)N3)c1 | inactive
CCOC(=O)[C@]12CCCC=C1N(Cc1cccc3ccccc13)C(=O)[C@H](CC(=O)NCCCCc1ccccc1)C2 | inconclusive [inhibitor, single point]
COc1cccc(C2C(C(=O)Nc3ccc(C)cc3C)=C(C)Nc3c(C(=O)Nc4cccc(C)c4)cnn32)c1OC (stereo unspecified) | inconclusive [inhibitor, partial curve, poor fit]
Cn1c(=O)oc2cc(S(=O)(=O)N3CCCC(C(=O)NCC4COc5ccccc5O4)C3)ccc21 (stereo unspecified) | inconclusive [inhibitor, single point]
CC(C)=CCC[C@H](C)C[C@@H]1Cc2[nH][nH]c(=O)c2[C@@H](c2ccc(F)cc2)O1 | active: 5.62 µM
O=C(NCC1CCCO1)c1cc([N+](=O)[O-])ccc1N1CCC(Cc2ccccc2)CC1 (stereo unspecified) | inconclusive [inhibitor, partial curve, poor fit]
CC(NC(=O)c1cccc(Br)c1)c1ccccc1 (stereo unspecified) | inconclusive [inhibitor, partial curve, poor fit]
CCNC(=S)Nc1ccc(Oc2ccccc2)cc1 | inconclusive [inhibitor, single point]

SMILES | Potency
Cc1ccc(SCCC(=O)N2CCC(C)CC2)cc1 | inconclusive [inhibitor, single point]
C[C@H](CCC(=O)OCc1cn(CC(=O)c2ccc(O)cc2)nn1)C1CC[C@H]2[C@@H]3CC[C@@H]4C[C@H](O)CC[C@]4(C)[C@H]3C[C@H](O)[C@]12C (stereo partly specified) | inconclusive [inhibitor, single point]
COc1ccc(C(=O)OC(C(=O)c2ccc(C)cc2)c2ccccc2)cc1 (stereo unspecified) | inconclusive [inhibitor, partial curve]
CCC(Sc1nncn2c1cc1occc12)C(=O)Nc1ccc(C)c(Cl)c1 (stereo unspecified) | inconclusive [inhibitor, single point]
CCCNC(=O)c1ccc(N2CCC3(CC2)CC(c2ccccc2)=NO3)c([N+](=O)[O-])c1 | inconclusive [inhibitor, single point]
Cc1ccc(C(=O)NCC(c2cccs2)S(=O)(=O)c2cccs2)cc1 (stereo unspecified) | inconclusive [inhibitor, single point]
Clc1ccc(CNc2ccc(N3CCN(Cc4ccccc4)CC3)cc2)cc1 | inconclusive [inhibitor, partial curve, poor fit]
C#Cc1ccc(NC(=O)C2(C)CCN2C(=O)Cc2ccc(C(C)C)cc2)cc1 (stereo unspecified) | inconclusive [inhibitor, partial curve, poor fit]
CCN(C(=O)CSc1nc2ccccc2n1Cc1cc(C)ccc1C)c1ccccc1 | inactive
Cc1c(NC(=O)/C(C#N)=C/c2ccc(-c3cc(Cl)ccc3Cl)o2)c(=O)n(-c2ccccc2)n1C | inconclusive [inhibitor, partial curve, poor fit]
COc1cc(Cl)c(S(=O)(=O)N2CCCC2)cc1Cl | inactive
O=C(c1c(F)cccc1F)N1CCCC(c2nc(-c3ccc(F)cc3)no2)C1 (stereo unspecified) | inconclusive [inhibitor, single point]
Cc1c2cnn(CC(=O)Nc3cccc(C(F)(F)F)c3)c(=O)c2c(C)n1Cc1ccccc1Cl | inconclusive [inhibitor, single point]
Cc1ccc(C)c(S(=O)(=O)Nc2ccc(C(=O)NCC(c3ccco3)N(C)C)cc2)c1 (stereo unspecified) | inconclusive [inhibitor, single point]
Cc1cccc(C)c1NC(=S)NNc1ncc(C(F)(F)F)cc1Cl | inactive
CCc1noc(C)c1C(=O)Nc1ccc(Cl)c(S(=O)(=O)N2CCCCC2)c1 | inconclusive [inhibitor, single point]
COc1cc(C(=O)Nc2ccc3nc(SCc4ccccc4)sc3c2)cc(OC)c1OC | inconclusive [inhibitor, partial curve, poor fit]
CCCN(C(=O)CCc1nc(-c2ccccc2F)no1)c1ccc(CC)cc1 | inconclusive [inhibitor, single point]
Cc1c(C(=O)NCCSCc2cccc(C(F)(F)F)c2)cnn1-c1ccc(F)cc1 | inconclusive [inhibitor, partial curve, poor fit]
